Results as given in the supplement of paper PMC12217912.
Some of the results follow. Sequences were assembled here from the parent chain. Inactive controls read about 0.05.

B1: TEV protease; numbered along this chain (parent)
chain: MGESLFKGPRDYNPISSSICHLTNESDGHTTSLYGIGFGPFIITNKHLFRRNNGTLVVQSLHGVFKVKDTTTLQQHLVDGRDMIIIRMPKDFPPFPQKLKFREPQREERICLVTTNFQTKSMSSMVSDTSCTFPSGDGIFWKHWIQTKDGQCGSPLVSTRDGFIVGIHSASNFTNTNNYFTSVPKNFMELLTNQEAQQWVSGWRLNADSVLWGGHKVFMVKPEEPFQPVKEATQL

Variants of: B1
Test: raw area under fraction-flipped curve 0-4 h after induction (AUC4h, not background-subtracted), DNA-recorder readout of cleavage of the substrate (dimensionless); higher = more cleavage of the substrate by the protease variant
Settings: temperature: 34 °C; time window: 0-4 h after rhamnose induction
Experimental: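 In vivo DNA recorder in E. coli TOP10(DE3) ΔrhaA at 34 °C. Each TEVp single-site mutant (parent TEVp 0) is paired with a single-site variant of the 7-mer TEVs (canonical ENLYFQ|S). The substrate sits between flexible linkers in a Bxb1-sfGFP-TEVs-SsrA fusion, so cleavage stabilises Bxb1 and speeds flipping of a recombination array, read by NGS. The value is the raw area under the fraction-flipped curve over 0-4 h after rhamnose induction (AUC4h), with ≥20 reads per time point. It is not background-subtracted; inactive controls average about 0.047.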
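Note: Bxb1 expression induced with 0.2% (w/v) L-rhamnose at OD600 near 0.5, cultures sampled hourly, flipped fraction per protease–substrate barcode pair counted by paired-end Illumina sequencing.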

| Variant | area with substrate ENLYDQS | area with substrate ENLYEQS | area with substrate ENLYGQS | area with substrate ENLYHQS | area with substrate ENLYIQS | area with substrate ENLYNQS | area with substrate ENLYPQS | area with substrate ENLYQQS | area with substrate ENLYSQS | area with substrate ENLYTQS | area with substrate ENLYWQS | area with substrate ENLYYQS | area with substrate ENLYMQS | area with substrate ENLYRQS | area with substrate ENLYKQS | area with substrate ENLYLQS | area with substrate ENLYVQS | area with substrate ENLYCQS |
| --- | --- | --- | --- | --- | --- | --- | --- | --- | --- | --- | --- | --- | --- | --- | --- | --- | --- | --- |
| K142V | 0.0651 | 0.0716 | 0.0589 | 0.0612 | 0.107 | 0.0633 | 0.0672 | 0.0748 | 0.076 | 0.0719 | 0.0735 | 0.0571 |  |  |  |  |  |  |
| D82E | 0.0583 | 0.0642 | 0.059 | 0.0608 |  | 0.048 | 0.058 | 0.046 | 0.0621 | 0.0573 |  | 0.0501 | 0.065 | 0.0892 |  |  |  |  |
| T70Y | 0.0542 | 0.0562 | 0.0574 | 0.0603 | 0.0927 | 0.0668 | 0.0263 | 0.0787 | 0.0712 | 0.0717 |  |  | 0.0464 | 0.0639 | 0.0708 | 0.0649 | 0.0777 |  |
| C20Y | 0.0572 | 0.0527 | 0.0556 | 0.0583 |  | 0.0479 | 0.055 | 0.0466 | 0.0427 |  |  | 0.0528 | 0.0502 |  | 0.049 | 0.0413 | 0.0494 |  |
| E3I | 0.0719 | 0.0544 |  | 0.0754 |  | 0.0717 | 0.0649 |  | 0.0976 |  | 0.0895 |  |  |  | 0.0961 | 0.103 |  |  |
| T72Y | 0.0534 | 0.0658 |  | 0.0783 | 0.124 |  | 0.0639 |  | 0.063 | 0.0615 | 0.0671 | 0.06 | 0.0713 | 0.0531 |  | 0.07 | 0.0846 |  |
| E107C | 0.0564 | 0.0501 | 0.0739 |  | 0.105 |  |  |  | 0.0786 |  | 0.0569 | 0.0601 |  |  | 0.0642 |  |  |  |
| K216W |  | 0.0344 | 0.0665 | 0.0781 |  | 0.0728 | 0.0711 | 0.0535 | 0.0554 | 0.0356 | 0.0848 | 0.049 | 0.0747 | 0.071 | 0.0659 | 0.0658 | 0.0916 | 0.0759 |
| C111R | 0.0522 | 0.0775 |  |  | 0.138 | 0.0864 |  | 0.0623 |  |  |  |  | 0.0932 | 0.0601 | 0.0891 |  |  |  |
| I145H | 0.0604 | 0.0613 | 0.0755 |  | 0.162 |  |  | 0.0645 | 0.0783 | 0.0909 |  | 0.0412 |  | 0.0524 | 0.0677 | 0.0679 |  |  |
| D137E | 0.0511 | 0.108 | 0.0651 | 0.0767 |  |  |  | 0.0665 |  | 0.0792 |  |  | 0.0749 | 0.077 | 0.0637 | 0.0921 | 0.13 |  |
| T71M | 0.0698 | 0.0724 | 0.0881 | 0.0704 |  |  | 0.0496 |  | 0.0637 |  |  | 0.054 |  |  |  |  |  |  |
| L205R | 0.0491 | 0.0614 | 0.0605 | 0.0722 |  | 0.0791 | 0.0547 | 0.0641 | 0.0626 |  |  | 0.0517 | 0.0455 | 0.0437 |  |  |  | 0.0811 |
| M219K | 0.0576 |  | 0.0722 | 0.058 |  | 0.0387 |  | 0.0541 | 0.062 | 0.0512 |  | 0.0467 | 0.0599 | 0.0378 | 0.0567 | 0.0433 | 0.0658 | 0.0558 |
| T55H | 0.0591 | 0.0701 | 0.0372 | 0.0586 | 0.134 |  |  | 0.0503 | 0.0798 | 0.0777 | 0.0822 | 0.0497 |  | 0.0646 | 0.0545 | 0.0921 | 0.14 |  |
| V126S | 0.0719 | 0.0629 | 0.0679 | 0.067 | 0.146 | 0.094 | 0.0632 | 0.0592 | 0.0765 | 0.0862 | 0.088 | 0.0694 |  | 0.0635 | 0.0666 |  | 0.127 |  |
| N206E | 0.0653 | 0.0642 | 0.0754 | 0.0706 |  | 0.0751 | 0.0852 |  | 0.0778 |  | 0.0819 | 0.0576 | 0.0958 | 0.0605 | 0.0621 |  | 0.134 | 0.0959 |
| T114D | 0.0326 | 0.0599 |  |  |  | 0.0654 |  | 0.058 |  |  |  | 0.0511 |  |  |  |  |  |  |
| T114C | 0.0632 | 0.0718 |  | 0.0682 | 0.118 | 0.0699 |  | 0.0502 | 0.0729 |  | 0.1 | 0.079 |  |  | 0.0718 |  | 0.11 |  |
| E108L | 0.0568 |  | 0.0573 | 0.0498 | 0.0922 | 0.0274 | 0.0628 |  |  |  |  |  | 0.0671 | 0.0659 | 0.0522 |  |  |  |
| P96G | 0.0513 | 0.0643 |  |  | 0.126 | 0.068 | 0.0732 |  | 0.0707 | 0.0762 |  |  | 0.0782 |  | 0.051 |  | 0.161 |  |
| M88S | 0.0517 | 0.0639 | 0.0564 | 0.0704 | 0.0768 |  |  | 0.0527 | 0.0438 | 0.0339 |  |  | 0.0626 | 0.0461 | 0.0588 |  | 0.0925 |  |
| M88K | 0.0549 | 0.0595 |  |  |  | 0.0657 |  |  |  |  | 0.0633 |  |  |  | 0.054 |  | 0.0659 |  |
| R51G | 0.0654 | 0.0668 |  |  |  |  | 0.0749 | 0.0726 | 0.076 | 0.088 | 0.0958 |  | 0.096 | 0.0733 |  |  | 0.114 |  |
| M83A | 0.0681 | 0.0444 | 0.0622 | 0.0648 |  | 0.0693 | 0.044 |  | 0.0653 | 0.0751 |  | 0.0499 | 0.0635 | 0.0491 | 0.064 | 0.0673 | 0.0927 |  |
| M83Y | 0.0529 | 0.0638 | 0.0615 | 0.0579 |  |  | 0.0487 |  |  |  |  |  |  | 0.0675 |  | 0.0474 |  |  |
| M83V | 0.0585 | 0.0705 | 0.0503 | 0.06 |  | 0.0646 |  | 0.0641 |  |  |  |  | 0.0473 |  |  |  |  |  |
| S201V | 0.0495 |  | 0.0651 | 0.0735 |  |  | 0.0358 | 0.0545 | 0.0779 |  | 0.0756 | 0.0291 |  | 0.0586 | 0.0498 | 0.0743 |  | 0.085 |
| K120R | 0.0665 | 0.058 | 0.0703 | 0.0777 | 0.124 | 0.0678 | 0.0686 | 0.0524 | 0.0687 | 0.081 | 0.0887 | 0.0656 | 0.103 | 0.0726 | 0.0593 | 0.073 | 0.115 |  |
| I86Y | 0.0603 | 0.0625 | 0.068 | 0.0715 |  |  | 0.054 | 0.0619 |  |  |  | 0.0621 | 0.0498 | 0.0373 | 0.0608 |  | 0.0509 |  |
